# Experimental data reported in publication PMC9911399, “Two distinct binding modes provide the RNA-binding protein RbFox with extraordinary sequence specificity”.
# Numbering of substitutions follows the chain as printed; changes in the protein carry UniProt numbers. Some of the results follow.
# T1: RBFOX1 RRM (Homo sapiens, UniProt Q9NWB1 109-208)
# T1 sequence: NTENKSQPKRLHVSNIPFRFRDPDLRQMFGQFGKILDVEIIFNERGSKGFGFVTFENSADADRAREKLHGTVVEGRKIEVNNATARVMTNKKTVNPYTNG
# B1: AUCGCUU (DNA:RNA)
# RNA: GGGAGACCGGAAUUCAGAUUGUCCAUCGCUUUUAAAUCCCGUCGUAGCCACCA
# DNA 1: CAATCTGAATTCCGGTCTCCC
# DNA 2: TGGTGGCTACGACGGGATT
# B2: UUCUAAG (DNA:RNA)
# RNA: B1 RNA with A25U, G28U, C29A, U30A, U31G
# DNA 1: CAATCTGAATTCCGGTCTCCC
# DNA 2: TGGTGGCTACGACGGGATT
# B3: ACGUGUU (DNA:RNA)
# RNA: B1 RNA with U26C, C27G, G28U, C29G
# DNA 1: CAATCTGAATTCCGGTCTCCC
# DNA 2: TGGTGGCTACGACGGGATT
# B4: UGCUAGU (DNA:RNA)
# RNA: B1 RNA with A25U, U26G, G28U, C29A, U30G
# DNA 1: CAATCTGAATTCCGGTCTCCC
# DNA 2: TGGTGGCTACGACGGGATT
# B5: UUCUACA (DNA:RNA)
# RNA: B1 RNA with A25U, G28U, C29A, U30C, U31A
# DNA 1: CAATCTGAATTCCGGTCTCCC
# DNA 2: TGGTGGCTACGACGGGATT
# B6: UGGGCGU (DNA:RNA)
# RNA: B1 RNA with A25U, U26G, C27G, U30G
# DNA 1: CAATCTGAATTCCGGTCTCCC
# DNA 2: TGGTGGCTACGACGGGATT
# B7: AAGAGAG (DNA:RNA)
# RNA: B1 RNA with U26A, C27G, G28A, C29G, U30A, U31G
# DNA 1: CAATCTGAATTCCGGTCTCCC
# DNA 2: TGGTGGCTACGACGGGATT
# B8: UACCGUA (DNA:RNA)
# RNA: B1 RNA with A25U, U26A, G28C, C29G, U31A
# DNA 1: CAATCTGAATTCCGGTCTCCC
# DNA 2: TGGTGGCTACGACGGGATT
# B9: UUCGAGG (DNA:RNA)
# RNA: B1 RNA with A25U, C29A, U30G, U31G
# DNA 1: CAATCTGAATTCCGGTCTCCC
# DNA 2: TGGTGGCTACGACGGGATT
# B10: CCUAAUC (DNA:RNA)
# RNA: B1 RNA with A25C, U26C, C27U, G28A, C29A, U31C
# DNA 1: CAATCTGAATTCCGGTCTCCC
# DNA 2: TGGTGGCTACGACGGGATT
# B11: UGCGUCC (DNA:RNA)
# RNA: B1 RNA with A25U, U26G, C29U, U30C, U31C
# DNA 1: CAATCTGAATTCCGGTCTCCC
# DNA 2: TGGTGGCTACGACGGGATT
# B12: CCAUGUA (DNA:RNA)
# RNA: B1 RNA with A25C, U26C, C27A, G28U, C29G, U31A
# DNA 1: CAATCTGAATTCCGGTCTCCC
# DNA 2: TGGTGGCTACGACGGGATT
# B13: AAUUUGC (DNA:RNA)
# RNA: B1 RNA with U26A, C27U, G28U, C29U, U30G, U31C
# DNA 1: CAATCTGAATTCCGGTCTCCC
# DNA 2: TGGTGGCTACGACGGGATT
# B14: GUAGCGC (DNA:RNA)
# RNA: B1 RNA with A25G, C27A, U30G, U31C
# DNA 1: CAATCTGAATTCCGGTCTCCC
# DNA 2: TGGTGGCTACGACGGGATT
# B15: UCGCAAU (DNA:RNA)
# RNA: B1 RNA with A25U, U26C, C27G, G28C, C29A, U30A
# DNA 1: CAATCTGAATTCCGGTCTCCC
# DNA 2: TGGTGGCTACGACGGGATT
# B16: UACAGAG (DNA:RNA)
# RNA: B1 RNA with A25U, U26A, G28A, C29G, U30A, U31G
# DNA 1: CAATCTGAATTCCGGTCTCCC
# DNA 2: TGGTGGCTACGACGGGATT
# B17: UGGGCAG (DNA:RNA)
# RNA: B1 RNA with A25U, U26G, C27G, U30A, U31G
# DNA 1: CAATCTGAATTCCGGTCTCCC
# DNA 2: TGGTGGCTACGACGGGATT
# B18: UAGGUCU (DNA:RNA)
# RNA: B1 RNA with A25U, U26A, C27G, C29U, U30C
# DNA 1: CAATCTGAATTCCGGTCTCCC
# DNA 2: TGGTGGCTACGACGGGATT
# B19: UGUGCGA (DNA:RNA)
# RNA: B1 RNA with A25U, U26G, C27U, U30G, U31A
# DNA 1: CAATCTGAATTCCGGTCTCCC
# DNA 2: TGGTGGCTACGACGGGATT
# B20: CAUGCUU (DNA:RNA)
# RNA: B1 RNA with A25C, U26A, C27U
# DNA 1: CAATCTGAATTCCGGTCTCCC
# DNA 2: TGGTGGCTACGACGGGATT
# Molecular target: T1, RBFOX1 RRM
# Experiment: EMSA; HiTS-Eq, 1 nM pool, 10 min; buffer printed only for the single-RNA assays: 10 mM Tris pH 7.5, 150 mM NaCl, 3.4 mM EDTA, 0.001% NP-40, 30 C
# Settings: tags: His6 N-terminal (pET28a); label: 5' 32P
# Procedure, shortened: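 Purified RbFox RRM (wild type or mutant) was equilibrated for 10 min in 50 µL with 1 nM of a 5′-radiolabelled pool of RNA with 7 randomized nucleotides, its flanks annealed to DNA oligonucleotides, across increasing protein concentrations. Free RNA was separated by 8% native PAGE, excised, reverse-transcribed, PCR-barcoded and sequenced on an Illumina HiSeq 2500. Relative association constants came from read-count changes of each variant against the control reaction, normalised to the cognate motif.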
row,Binder,binding signal
1,B1,0.00304 KA relative to UGCAUGU
2,B2,0.00998 KA relative to UGCAUGU
3,B3,0.0131 KA relative to UGCAUGU
4,B4,0.0309 KA relative to UGCAUGU
5,B5,0.00365 KA relative to UGCAUGU
6,B6,0.0388 KA relative to UGCAUGU
7,B7,0.0103 KA relative to UGCAUGU
8,B8,0.00462 KA relative to UGCAUGU
9,B9,0.00939 KA relative to UGCAUGU
10,B10,0.00151 KA relative to UGCAUGU
11,B11,0.0132 KA relative to UGCAUGU
12,B12,0.00341 KA relative to UGCAUGU
13,B13,0.0112 KA relative to UGCAUGU
14,B14,0.0153 KA relative to UGCAUGU
15,B15,0.00871 KA relative to UGCAUGU
16,B16,0.00941 KA relative to UGCAUGU
17,B17,0.0337 KA relative to UGCAUGU
18,B18,0.0154 KA relative to UGCAUGU
19,B19,0.0218 KA relative to UGCAUGU
20,B20,0.0103 KA relative to UGCAUGU
